PubChem BioAssay AID1452 (National Center for Advancing Translational Sciences (NCATS), 2008)
Hit rate of the full screen: of about 150,000 compounds, about 190 (0.13%) were called active. Inconclusive results, whose numbers are uncertain, are shown with a selection of clear calls. The call rests on the fitted dose curve; in most records, active means well fitted inhibition curve with a large enough effect; inconclusive means small, poorly fitted or top-dose-only effect; inactive means flat fitted curve, though single readings scatter. Potencies beside an inconclusive call are fits to weak or partial responses and may not hold up.

What follows are compounds tested against Polyunsaturated fatty acid lipoxygenase ALOX12 (Homo sapiens) (UniProt P18054) (assay: qHTS Assay for Inhibitors of 12-hLO (12-human lipoxygenase)). Conditions: purified 12-hLO, xylenol orange hydroperoxide absorbance; series mostly up to 57.1 µM.
Sequence of UniProt P18054 (P18054 whole entry, looked up): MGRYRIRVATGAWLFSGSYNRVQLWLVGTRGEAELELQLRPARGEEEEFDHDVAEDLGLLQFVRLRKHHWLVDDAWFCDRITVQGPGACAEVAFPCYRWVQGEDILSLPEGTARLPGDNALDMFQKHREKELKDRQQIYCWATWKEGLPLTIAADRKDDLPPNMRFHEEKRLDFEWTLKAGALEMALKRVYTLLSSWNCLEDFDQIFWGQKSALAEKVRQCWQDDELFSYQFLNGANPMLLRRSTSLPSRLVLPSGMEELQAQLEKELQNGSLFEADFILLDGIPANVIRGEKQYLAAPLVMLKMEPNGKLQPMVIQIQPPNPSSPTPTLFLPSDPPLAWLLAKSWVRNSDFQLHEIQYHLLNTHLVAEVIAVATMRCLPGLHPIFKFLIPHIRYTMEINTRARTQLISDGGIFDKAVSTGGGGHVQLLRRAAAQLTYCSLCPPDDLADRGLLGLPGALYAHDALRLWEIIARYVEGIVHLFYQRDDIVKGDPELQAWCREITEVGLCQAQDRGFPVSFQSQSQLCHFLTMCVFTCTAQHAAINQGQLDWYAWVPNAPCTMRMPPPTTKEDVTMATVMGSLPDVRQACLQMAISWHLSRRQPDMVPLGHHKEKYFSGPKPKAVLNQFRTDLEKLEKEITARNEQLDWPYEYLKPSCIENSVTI
How it was run: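 Purified human 12hLO (150 nM final) was preincubated with compounds for 15 min at room temperature in 25 mM Hepes pH 7.0, 0.01% Triton X-100, then reacted with 40 uM arachidonic acid for 30 min. Hydroperoxide was detected with ferrous iron/xylenol orange.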
Further: nearly all actives have a fitted effect of over 55% in size.
On the % scale 0 is the no-effect control and ±100 the full control effect; potency means the concentration at half of the fitted maximal effect; tags describe the fitted curve by direction and shape.

| Structure (SMILES) | Potency | activity change, negative = inhibition |
| --- | --- | --- |
| O=S(=O)(NC1CCCCC1Nc1ccccc1)c1ccccc1 (stereo not given) | inactive |  |
| O=C(c1csnn1)N1CCC2(CC1)CCN(c1ncccn1)CC2 | inactive |  |
| O=C(COc1ccc(Cl)cc1Cl)N1CCCN(C(=O)COc2ccc(Cl)cc2Cl)CC1 | inconclusive: 25.1 µM [inhibitor, single point] |  |
| CCCc1cc(-c2[nH]ncc2-c2ccc3c(c2)OCCCO3)c(O)cc1O | inconclusive: 12.6 µM [inhibitor, partial curve] |  |
| C=CCNC(=S)N/N=C/c1ccc(OCc2ccccc2Cl)cc1 | inconclusive: 22.4 µM [inhibitor, partial curve] |  |
| Cc1cccc(C)c1NC(=S)NC(C)CCc1ccccc1 (stereo not given) | inconclusive: 31.6 µM [inhibitor, single point] |  |
| CCCC(=O)NC(=S)Nc1sc2c(c1C(N)=O)CCC2 | inactive |  |
| Cc1ccc(/C=N/Nc2cccc3cccnc23)c(O)c1 | inconclusive: 28.2 µM [inhibitor, single point] |  |
| Cc1cccc(CN2C(=O)N/C(=C/c3cc(C)n(-c4ccccn4)c3C)C2=O)c1 | inactive |  |
| COc1ccc(S(=O)(=O)N2Cc3ccccc3CC2C(=O)Nc2nccs2)cc1 (stereo not given) | inactive |  |
| O=C1C2CC=C(Cl)CC2C(=O)N1CCc1ccccc1 (stereo not given) | inconclusive: 5.01 µM [inhibitor, partial curve] |  |
| O=C(NC(NNc1ccc([N+](=O)[O-])cc1)(C(F)(F)F)C(F)(F)F)c1ccccc1Cl | inconclusive: 3.98 µM [inhibitor, partial curve] |  |
| COc1ccccc1N1CSC2=C(C#N)C(c3ccc(SC)cc3)CC(=O)N2C1 (stereo not given) | inconclusive: 14.1 µM [inhibitor, partial curve] |  |
| CCCCCCCC[N+](CCCCCCCC)(CCCCCCCC)CCCCCCCC | inconclusive: 35.5 µM [inhibitor, single point] |  |
| CCCCn1c(-c2csc3c2CCCC3)n[nH]c1=S | inconclusive: 35.5 µM [inhibitor, single point] |  |
| COCCCN1C(=O)c2ccc(C(=O)NCc3ccco3)cc2C1=O | inactive |  |
| CCOC(=O)C1=C(Cc2ccc(Cl)cc2)C(=O)c2ccccc2C1=O | inconclusive: 35.5 µM [inhibitor, single point] |  |
| COc1ccc(Cc2nnc(NC(=O)c3c(-c4ccccc4)noc3C)s2)cc1 | inactive |  |
| CCOCC(=O)Nc1nnc(C2CCCCC2)s1 | inactive |  |
| COc1ccccc1NC(CC(=O)c1ccccc1)C(=O)OCC(=O)c1ccc(C)c(C)c1 (stereo not given) | inactive |  |
| COc1ccccc1N(O)C1CC(=O)N(c2ccc(Br)cc2)C1=O (stereo not given) | inconclusive: 17.8 µM [inhibitor, single point] |  |
| CN(C)c1ccc(/C(=N\O)c2ccccc2)cc1 | inactive |  |
| CCOC(=O)c1c(NC(=S)Nc2ccccc2)sc2c1CCCCC2 | inconclusive: 31.6 µM [inhibitor, partial curve] |  |
| C(=N\Nc1nc2ccccc2[nH]1)/c1cccs1 | inconclusive: 39.8 µM [inhibitor, single point] |  |

| Structure (SMILES) | Potency | activity change, negative = inhibition |
| --- | --- | --- |
| Cc1ccc(SCCNC(=S)Nc2ccc(C)c(C)c2)cc1 | active: 25.1 µM |  |
| CCc1ccccc1N1CSC2=C(C#N)C(c3ccccc3F)CC(=O)N2C1 (stereo not given) | inconclusive: 25.1 µM [inhibitor, partial curve] |  |
| CCCc1cc(-c2[nH]ncc2-c2ccc3c(c2)OCCCO3)c(O)cc1OC | inconclusive: 25.1 µM [inhibitor, partial curve] |  |
| Cc1cc(Cl)ccc1NC(=O)CSc1nnc(-c2ccncc2)n1Cc1ccco1 | inconclusive: 20 µM [inhibitor, single point] |  |
| Cc1ccc(S(=O)(=O)n2nc(-c3ccc(Cl)cc3)nc2NCc2ccco2)cc1 | inconclusive: 12.6 µM [inhibitor, partial curve] |  |
| Cc1ccccc1N1C(S)=C(C#N)C(=O)NC12CCCCC2 | inconclusive: 39.8 µM [inhibitor, single point] |  |
| Cc1c(C(c2cc3c(cc2Br)OCO3)c2c(C)n(C)n(-c3ccccc3)c2=O)c(=O)n(-c2ccccc2)n1C | inactive |  |
| N#Cc1c(Cl)nc(N/N=C/c2ccccc2)c(Cl)c1Cl | inconclusive: 15.8 µM [inhibitor, partial curve] |  |
| Cc1ccc(-c2csc3n[nH]c(=S)n23)cc1 | inconclusive: 39.8 µM [inhibitor, single point] |  |
| Cc1ccc(-c2ccc(CCC(=O)O)n2CC(=O)O)cc1 | inconclusive: 17.8 µM [inhibitor, partial curve] |  |
| O=C(Nc1nc(-c2ccc(Cl)cc2)cs1)NC1CCCCC1 | inconclusive: 11.2 µM [inhibitor, partial curve] |  |
| COc1ccccc1[C@@H]1C(c2ccc(F)cc2)=NN(c2ccc(Br)cc2)[C@H]1C(=O)N1CCOC1=O |  | inactive: 1.19% [at 0.00818 µM] |
| CCc1ccc(CNc2ccc(N3CCN(C(C)=O)CC3)cc2)cc1 | inconclusive: 20 µM [inhibitor, partial curve] |  |
| N#CC1=C(N)OC2=C(CCc3ccccc32)C1c1ccccc1Cl (stereo not given) | inconclusive: 17.8 µM [inhibitor, partial curve] |  |
| S=C(NCc1cccc(Cl)c1)NC1CCCCC1 | inconclusive: 31.6 µM [inhibitor, single point] |  |
| CC[n+]1ccc(C[n+]2ccccc2)c2ccccc21 | inconclusive: 35.5 µM [inhibitor, single point] |  |
| N#CC1=C(SCC(=O)c2ccccc2)NC2=C(C(=O)CCC2)C1c1ccco1 (stereo not given) | inconclusive: 11.2 µM [inhibitor, partial curve] |  |
| Cc1c(O)c(Br)c(C)c(O)c1Br (tested in a mixture with another compound) | inconclusive: 3.16 µM [inhibitor, partial curve] |  |
| CCNC(=O)N1c2ccc(OCC)cc2C(C)=CC1(C)C | inconclusive: 17.8 µM [inhibitor, partial curve] |  |
| O=C(CCc1ccccc1)NC(=S)Nc1cccc(Br)c1 | inconclusive: 17.8 µM [inhibitor, single point] |  |
| Cc1cc(Cl)ccc1OC(C)C(=O)N1CCCN(C(=O)C(C)Oc2ccc(Cl)cc2C)CC1 (stereo not given) | inconclusive: 28.2 µM [inhibitor, partial curve] |  |
| S=C(NCc1ccco1)N/N=C/c1ccc(Cl)cc1 | inconclusive: 35.5 µM [inhibitor, single point] |  |
| CCc1nnc(NS(=O)(=O)c2ccc(NC(=S)NC(=O)c3ccc(OC)cc3)cc2)s1 | inconclusive: 11.2 µM [inhibitor, partial curve] |  |
| CCOC(=O)C1=C(CSc2nc3c(cc2C#N)CN(C)CC3)OC(N)=C(C#N)C1c1ccc(Cl)cc1 (stereo not given) | inconclusive: 28.2 µM [inhibitor, partial curve] |  |

| Structure (SMILES) | Potency | activity change, negative = inhibition |
| --- | --- | --- |
| O=c1c(CCc2ccccc2)nc2cnc(N3CCNCC3)nc2n1CCc1ccccc1 | inactive |  |
| O=C(c1cnccn1)N1CCC[C@@]2(CCN(C(c3ccccc3)c3ccccc3)C2)C1 | inactive |  |
| CC(=O)N1CC[n+]2c(-c3ccc(Cl)cc3)csc21 | inconclusive: 28.2 µM [inhibitor, single point] |  |
| O=C(Nc1nccs1)c1cc2c(s1)CCCCC2 | inconclusive: 25.1 µM [inhibitor, single point] |  |
| COc1cccc(/C=C2\N=C3CCCCCN3C2=O)c1 | inactive |  |
| CCOC(=O)C1=C(CC)OC(N)=C(C#N)C1c1ccsc1 (stereo not given) | inconclusive: 15.8 µM [inhibitor, single point] |  |
| O=C1CC(Nc2ccc(N3CCOCC3)cc2)C(=O)N1CCc1ccccc1 (stereo not given) | inconclusive: 39.8 µM [inhibitor, single point] |  |
| CCC/C=C(\CCC)C(NS(=O)(=O)CC12CCC(CC1=O)C2(C)C)c1ccc(C(=O)OC)cc1 (stereo not given) | inactive |  |
| COc1ccc(C(=O)NC(=S)NNC(=O)c2cnccn2)cc1 | inactive |  |
| O=C(CSCc1ccccc1)Nc1ccc(F)c(F)c1 | inactive |  |
| CC(C)(C)C(=O)NC(=S)Nc1ccccc1F | inconclusive: 28.2 µM [inhibitor, partial curve] |  |
| Cc1oc2c(O)c(O)ccc2c(=O)c1-c1cnn(-c2ccccc2)c1 | inconclusive: 0.0891 µM [inhibitor, full curve] |  |
| COc1ccccc1NC(=S)NC(=O)CCCOc1ccc(Cl)cc1Cl | inconclusive: 14.1 µM [inhibitor, partial curve] |  |
| O=C(NC(Cc1ccccc1)C(=O)O)/C(=C/c1ccc(F)cc1)NC(=O)c1ccccc1 (stereo not given) | inactive |  |
| O=C(NNc1ccc(C(F)(F)F)cc1[N+](=O)[O-])c1ccc(NS(=O)(=O)c2ccc(F)cc2)cc1 | inconclusive: 2.51 µM [inhibitor, full curve] |  |
| CCOCCCNC(=S)NCCNc1nc2c(C)cccc2cc1C#N | inconclusive: 39.8 µM [inhibitor, single point] |  |
| Cc1ccc(NC(=S)N2CCC(c3nc4ccccc4s3)CC2)cc1C | inconclusive: 31.6 µM [inhibitor, single point] |  |
| O=c1[nH]c(-c2ccccc2F)nc2c1sc(=S)n2Cc1ccccc1 | inactive |  |
| Cc1ccc(-n2c(C)cc(/C=N/NC(N)=S)c2C)cc1 | inconclusive: 31.6 µM [inhibitor, single point] |  |
| Cc1[nH]n(-c2ncc(-c3ccccc3)s2)c(=O)c1C(c1ccc(Cl)cc1)C(C#N)C#N (stereo not given) | inactive |  |
| Cc1[nH]n(-c2ccccc2)c(=S)c1C=Nc1cccc([N+](=O)[O-])c1 | active: 31.6 µM |  |
| Nc1nc(N)c2nc(-c3ccccc3)c(N)nc2n1 | inconclusive: 8.91 µM [inhibitor, partial curve] |  |
